Data: a collection of fitness landscapes (doi:10.1016/j.celrep.2020.107928)
Whole data set: some 81,000 sequences, median “one-hybrid fitness for binding parS DNA” near -0.17, cut for the highest 2% near 0.51. The list shows a part of the results.

B1: Caulobacter ParB omega fusion; a variant is named by its letters at X, in order, B8GW30 (parent)
chain: MESVVVGEPGMSEGRRGLGRGLSALLGEVDAAPAQAPGEQLGGSREAPIEILQRNPDQPRRTFREEDLEDLSNSIREKGVLQPILVRPSPDTAGEYQIVAGERAWRAAQRAGLKTVPIMVRELDDLAVLEIGIIENVQRADLNVLEEALSYKVLMEKFERTQENIAQTIGKSXSHVANXMRLLXLPDEVQSYLVSGELTAXHARAIAAAADPVALAKQIIEGGLSVRETEALARKAPNLSAGKSKGGRPPRVKDTDTQALESDLSSVLGLDVSIDHRGSTGTLTITYATLEQLDDLCNRLTRGI

Variants of: B1
Experiment: one-hybrid fitness for binding parS DNA (scaled: cognate 1, non-cognate 0); higher = stronger binding
Settings: with parS DNA site
Outline: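 On M9-minus-histidine containing 0.1 mM IPTG and 5 mM 3-AT, E. coli USO cells with a HIS3 reporter, site 19 bp from the promoter, grew 48 hours at 37°C to select Caulobacter ParB libraries randomised at four specificity codons. Plasmids from before and after were Illumina-sequenced, with three replicate libraries pooled and variants under 10 reads left out. Fitness is the log change in variant-to-wild-type read ratio, rescaled against cognate and non-cognate.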

one-hybrid fitness for binding parS DNA, 0.438:
RNHA

one-hybrid fitness for binding parS DNA, 0.24:
YRGA

one-hybrid fitness for binding parS DNA, 0.472:
RLAY

one-hybrid fitness for binding parS DNA, 0.895:
RSTT

one-hybrid fitness for binding parS DNA, ≤ 0.2:
PWTF
IEFC
RHAV
GHIE
NRPG
FSLS
TKHT
SDSI
SNYG
EVVL
FCLT
ARRG
HLSQ
LCYG
MWLW
KGMG
HVAT
GDFT
DPID
PGQI
PHGH
ANER
PNPT
YDFI
FCSR
QKGN
SPHW
TVKT
QDYL
GLRW
QPRR
DNTL
SHAI
DQST
LQGW
LAAA
FTNT
KAKC
DRHF
NNRR
LLCL
YVIR
RLKV
KVVT
HLGM
TANW
HITC
SDVM
NVNT
KRFN
QSTL
YTIC
GGMV
RKSR
KHIS
HPHE
IFST
MKAR
LSDE
LSSS
IGCV
SDSV
TMAN
IPES
GCEN
VTTY
QQWA
CQAV
PPMS
HTTP
FLGL
YNRY
GMSK
YYKA
VINT
YDMG
TTRE
WHTW
NRLR

one-hybrid fitness for binding parS DNA, 0.992:
RVNG
